Paper PMC7819943, “Rice protein-binding microarrays: a tool to detect cis-acting elements near promoter regions in rice”
Some of the results follow.

These sequences were tested against T1, OsWOX13 (Oryza sativa, UniProt Q5QMM3 1-267) (assay: protein-binding microarray (RPBM); PBS, 2% BSA, 51.3 ng/ul salmon testes DNA, 50 uM zinc acetate, 200 nM TF, 25 C, 1 h; high values mean tight binding). Conditions: protein: recombinant; tags: N-terminal polyhistidine and DsRed monomer fusion (pET32a); label: CyDye5-dUTP incorporated in the synthesized complementary strand; 3' TTTTT single-stranded linker to array surface; dsDNA, one strand shown.
T1 sequence: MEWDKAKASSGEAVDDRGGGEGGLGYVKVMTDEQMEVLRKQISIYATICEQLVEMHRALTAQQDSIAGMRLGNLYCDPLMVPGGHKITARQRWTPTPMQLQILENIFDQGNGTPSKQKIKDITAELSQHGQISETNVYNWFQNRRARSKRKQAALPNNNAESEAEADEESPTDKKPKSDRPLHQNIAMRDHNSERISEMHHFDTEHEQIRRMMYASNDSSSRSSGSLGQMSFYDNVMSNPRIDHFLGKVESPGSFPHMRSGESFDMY
Outline: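 The binding signal is fluorescence intensity per array feature (arbitrary units). Readings came from an Axon 4000B scanner after a washed, 2% BSA-blocked, double-stranded custom Agilent array had been incubated for 1 h at 25 °C with 200 nM protein and 50 µM zinc acetate. The protein was a Ni–NTA-purified transcription factor fused N-terminally to polyhistidine and DsRed, expressed in E. coli BL21-CodonPlus.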

Sequence | binding signal
TGACAAATTGCTTTAACTTTGATCAAGTTTGTAGAGAAAACGGAGTCACCTAGTGCAG | 4900 fluorescence intensity (a.u.)
CCTAATTAAAACTAACCTGAGTTGCTAGGCTTGGTGAAGGCGGAGTCACCTAGTGCAG | 25100 fluorescence intensity (a.u.)
ATGCTTATTAATTACCAACCTCAACTCTCAGTCTCTCTTTCGGAGTCACCTAGTGCAG | 5540 fluorescence intensity (a.u.)
TTTCTCTAATTATTATGGATTATATTATGGGAGTTTCTAGCGGAGTCACCTAGTGCAG | 14300 fluorescence intensity (a.u.)
ATCAATAGATAGATAGATAGATGTACACGCACGATCGACTCGGAGTCACCTAGTGCAG | 23500 fluorescence intensity (a.u.)
AAATTATGTAAATTATACTAGTTGACTTGAGCCTTATGTTCGGAGTCACCTAGTGCAG | 4000 fluorescence intensity (a.u.)
CTTAATGAGAAAAGATTAGGTCTCTCTAGCCATACGAGCACGGAGTCACCTAGTGCAG | 17100 fluorescence intensity (a.u.)
CGAGACAGTCCCAATTAAACCGATACGTCTGTAAACACAACGGAGTCACCTAGTGCAG | 5200 fluorescence intensity (a.u.)
AATTGATTTCTCTATAGACAAATAGGGAATGCCAGATTGACGGAGTCACCTAGTGCAG | 16200 fluorescence intensity (a.u.)
CTAAAGCTAAATTTTGATTTGTATGAGGAGCCTAACGATGCGGAGTCACCTAGTGCAG | 11700 fluorescence intensity (a.u.)
TCAATTTAAATTATTTCTTAAATGCAATTCTATTTATTAACGGAGTCACCTAGTGCAG | 13100 fluorescence intensity (a.u.)
AGGATCTAATTTAATTCGGTTTTACAAGTTGGAGCTTAAACGGAGTCACCTAGTGCAG | 3490 fluorescence intensity (a.u.)
ATTAACTGCATTTTCGTCGCATCCGGATTATGGAGCTCCACGGAGTCACCTAGTGCAG | 8210 fluorescence intensity (a.u.)
GAAAATTAGAGTTTAATTCTATTAAATATAGTGGATTGTACGGAGTCACCTAGTGCAG | 22500 fluorescence intensity (a.u.)
TTATAATTATTTTGGGACGGGTAGTACTGAACGTCATCTACGGAGTCACCTAGTGCAG | 12500 fluorescence intensity (a.u.)
TTGTTAATTACCGCGATTGATGTCGAGCTTGCATTTTGATCGGAGTCACCTAGTGCAG | 40900 fluorescence intensity (a.u.)
TATTCAATAATGATTTCCCCTGTATTATAGTTCTATTACACGGAGTCACCTAGTGCAG | 3840 fluorescence intensity (a.u.)
AACAGCTGATGAGTGATGATTGACAGACATCACACGCGGACGGAGTCACCTAGTGCAG | 57600 fluorescence intensity (a.u.)
ACAATATGATTAATATGACACGGGTAAGCACATAATCGGTCGGAGTCACCTAGTGCAG | 28200 fluorescence intensity (a.u.)
CACGCAGATTGACGCTCCTGGGATCAGTAATGCCCATGGTCGGAGTCACCTAGTGCAG | 28400 fluorescence intensity (a.u.)
ACAATGATTGGGTCTTAAGATTTTCTTTAATTATTCGACGCGGAGTCACCTAGTGCAG | 58300 fluorescence intensity (a.u.)

Sequence | binding signal
GTAATCAAATTGTCTCTTTAGATAGCGTGTGTTAGGGGACCGGAGTCACCTAGTGCAG | 5110 fluorescence intensity (a.u.)
CGTAATCACAGTTATTTTCTTCGCAACAACAAGAATGATGCGGAGTCACCTAGTGCAG | 6870 fluorescence intensity (a.u.)
AGTGATAGAAGACTTATCGGTATGATCTATAGTCAATTGCCGGAGTCACCTAGTGCAG | 13800 fluorescence intensity (a.u.)
TGGTTTATTAGCACTAATCATGAAACGGACTAGTAAATGACGGAGTCACCTAGTGCAG | 4580 fluorescence intensity (a.u.)
TGGTATTTGATCAAATTTGGATAACTTTACATTCATACACCGGAGTCACCTAGTGCAG | 4720 fluorescence intensity (a.u.)
CCTAATTACGCTGTAACACATCAGAACAAGAAATTCATAACGGAGTCACCTAGTGCAG | 23300 fluorescence intensity (a.u.)
TTAAATTTATAGAAAATTTACCTCTGTTTTAAATTACAAGCGGAGTCACCTAGTGCAG | 19300 fluorescence intensity (a.u.)
TTAGTTGTAATGAAACTAATTTGGTGTTTTAGAATTTAGACGGAGTCACCTAGTGCAG | 4720 fluorescence intensity (a.u.)
TAAACAAATCAAAGCAATCAAACACACAAACGTAAGGGGTCGGAGTCACCTAGTGCAG | 15600 fluorescence intensity (a.u.)
CTCATCCGAAATTCCTAATTGGCGACTGGTCGCGTGCCCCCGGAGTCACCTAGTGCAG | 7730 fluorescence intensity (a.u.)
GTAAGATACTAATTGCGTTCAGACAAAACAGGACAGAAGTCGGAGTCACCTAGTGCAG | 6300 fluorescence intensity (a.u.)
ACATGATAGACTAATGAGTAGATTGTTGTCCTAATTAGCTCGGAGTCACCTAGTGCAG | 54100 fluorescence intensity (a.u.)
AGAAACTGATCGACTAACTAATGAAAGCACAATATCATCGCGGAGTCACCTAGTGCAG | 5520 fluorescence intensity (a.u.)
ATTTAATGACCAACCATAATTGAACATCAAGATGGTGCCACGGAGTCACCTAGTGCAG | 18600 fluorescence intensity (a.u.)
TTATTATTATTATTATGATTTATTGAATGAGCCAACAGCTCGGAGTCACCTAGTGCAG | 11800 fluorescence intensity (a.u.)
CATGATTGTTGCCAAGACCCTAGGAGCAAGATCACCGAAGCGGAGTCACCTAGTGCAG | 33900 fluorescence intensity (a.u.)
GAGATCCACGGGGACTTGATTGATTTCTTTCCTCCATTTCCGGAGTCACCTAGTGCAG | 9880 fluorescence intensity (a.u.)
ATGTTAATGAATCTAAACACATACATATGTCTAGATTCATCGGAGTCACCTAGTGCAG | 3650 fluorescence intensity (a.u.)
TAGCTAATAATTAATTAATTACATGCTAATGGATTGCTCTCGGAGTCACCTAGTGCAG | 39400 fluorescence intensity (a.u.)
AATGTAATGTAACAAATTTGTCTAAAAGGATTGAACTTGGCGGAGTCACCTAGTGCAG | 12400 fluorescence intensity (a.u.)
CCTCTTAAACTGGTGGCCCACAATGGTATCTTCCCACACACGGAGTCACCTAGTGCAG | 4220 fluorescence intensity (a.u.)
